Experimental data reported in the supplement of paper PMC4604168 (melanoma cell lines).
This is one part of the list. Many values rest on one well or one pass, so single values are uncertain.

Assays:
Experiment in all cases: cell count relative to DMSO control; melanoma cells; higher = more viable cells
Conditions in all cases: library dose: low library concentration; 72 h
[1] = tested on: MZ2-MEL
[2] = tested on: MeWo
[3] = tested on: RPMI7951
[4] = tested on: RVH-421
[5] = tested on: SkMel28
[6] = tested on: SkMel2
[7] = tested on: SkMel30
[8] = tested on: SkMel5
[9] = tested on: UACC257
[10] = tested on: UACC62
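Further: cell number obtained by counting DAPI-stained nuclei in high-throughput microscope images with image analysis software, screen run in 1,536-well plates.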

Structure (SMILES) | cell count [1] | cell count [2] | cell count [3] | cell count [4] | cell count [5] | cell count [6] | cell count [7] | cell count [8] | cell count [9] | cell count [10]
Nc1nc(F)nc2c1ncn2[C@@H]1O[C@H](CO)[C@@H](O)[C@@H]1O [fludarabine] + COc1ccc2c(c1)CCC1C2CCC2(C)C(NCCCCCCN3C(=O)C=CC3=O)CCC12 [U73122] (first compound 0.2 µM, partner dose 0.4 µM) | 0.965% | 26.7% | 74.6% | 85.8% | 82.3% | 4.51% | 16.3% | 60.2% | 85.8% | 96.9%
Nc1ncn([C@H]2C[C@H](O)[C@@H](CO)O2)c(=O)n1 [decitabine] + OCCn1cc(-c2cnc3nnn(Cc4ccc5ncccc5c4)c3n2)cn1 [PF04217903] (first compound 0.1 µM, partner dose 1 µM) | 87.1% | 111% | 83.1% | 91.2% | 92.7% | 93.3% | 124% | 103% | 94.8% | 75.8%
Nc1nc(F)nc2c1ncn2[C@@H]1O[C@H](CO)[C@@H](O)[C@@H]1O [fludarabine] + CCc1ccc(CCOc2ccc(CC3SC(=O)NC3=O)cc2)nc1 [pioglitazone] (first compound 0.2 µM, partner dose 2 µM) | 106% | 37.4% | 96.7% | 104% | 89.6% | 8.36% | 21.8% | 63.9% | 90% | 77.5%
CC(=O)c1c(C)c2cnc(Nc3ccc(N4CCNCC4)cn3)nc2n(C2CCCC2)c1=O [palbociclib] + O=C(CCCCCCC(=O)Nc1ccccc1)NO [vorinostat] (first compound 0.04 µM, partner dose 0.08 µM) | 78.1% | 71.9% | 83.1% | 89.4% | 62.2% | 81.8% | 77.5% | 65.5% | 69.3% | 65%
CC(=O)O[C@@]12CO[C@@H]1C[C@H](O)[C@@]1(C)C(=O)[C@H](O)C3=C(C)[C@@H](OC(=O)[C@H](O)[C@@H](NC(=O)OC(C)(C)C)c4ccccc4)C[C@@](O)([C@@H](OC(=O)c4ccccc4)[C@H]21)C3(C)C [Docetaxel] + CCCCCCCCCCCC1=C(O)C(=O)C=C(O)C1=O [Embelin] (first compound 0.0001 µM, partner dose 1.2 µM) | 42.4% | 43.9% | 35.6% | 60% | 50.2% | 29.4% | 36.9% | 77.7% | 51.2% | 41%
CC(=O)c1c(C)c2cnc(Nc3ccc(N4CCNCC4)cn3)nc2n(C2CCCC2)c1=O [palbociclib] + Cc1cc([N+](=O)[O-])ccc1NS(=O)(=O)c1cc(Cl)ccc1Cl [FH535] (first compound 0.04 µM, partner dose 1 µM) | 74.4% | 67.8% | 72.5% | 77.2% | 77% | 78.4% | 60.6% | 72.9% | 70.8% | 71.4%
CC(=O)c1c(C)c2cnc(Nc3ccc(N4CCNCC4)cn3)nc2n(C2CCCC2)c1=O [palbociclib] + O=C(O)C(=O)Nc1sc2c(c1C(=O)O)CCNC2 [TCS401] (first compound 0.04 µM, partner dose 1.66667 µM) | 76.6% | 69.9% | 74.1% | 55.4% | 70% | 76.9% | 64% | 71.9% | 77.7% | 78.8%
CC(=O)c1c(C)c2cnc(Nc3ccc(N4CCNCC4)cn3)nc2n(C2CCCC2)c1=O [palbociclib] + Cn1cc(/C=C2\C(=O)Nc3cccnc32)c2ccccc21 [GW441756] (first compound 0.04 µM, partner dose 0.4 µM) | 77.1% | 71.6% | 76.5% | 97.4% | 83.3% | 77.8% | 64.3% | 69.8% | 50.2% | 76.8%
Nc1nc(F)nc2c1ncn2[C@@H]1O[C@H](CO)[C@@H](O)[C@@H]1O [fludarabine] + CC1(C)NC(=O)N(c2ccc([N+](=O)[O-])c(C(F)(F)F)c2)C1=O [nilutamide] (first compound 0.2 µM, partner dose 1 µM) | 102% | 36.1% | 91.6% | 109% | 73.1% | 8.3% | 16.5% | 50.7% | 85.7% | 79%
Nc1nc(F)nc2c1ncn2[C@@H]1O[C@H](CO)[C@@H](O)[C@@H]1O [fludarabine] + O=C(O)c1ccc(-c2c[nH]c3ncc(-c4ccccc4)cc23)cc1C1CCCC1 [GSK650394] (first compound 0.2 µM, partner dose 0.16 µM) | 103% | 31.3% | 93% | 92.3% | 66.8% | 5.15% | 18.3% | 58.1% | 93.5% | 83%
Nc1ncn([C@H]2C[C@H](O)[C@@H](CO)O2)c(=O)n1 [decitabine] + CCCCCCCCCCCC1=C(O)C(=O)C=C(O)C1=O [Embelin] (first compound 0.1 µM, partner dose 1.2 µM) | 88% | 93.6% | 80.2% | 99.1% | 89.8% | 105% | 126% | 112% | 86.3% | 78.4%
Nc1ccn([C@@H]2O[C@H](CO)[C@@H](O)C2(F)F)c(=O)n1 [gemcitabine] + CCc1ccc(CCOc2ccc(CC3SC(=O)NC3=O)cc2)nc1 [pioglitazone] (first compound 0.0004 µM, partner dose 2 µM) | 90.2% | 103% | 103% | 86.2% | 85.3% | 99.8% | 108% | 103% | 77.5% | 93.7%
CC(=O)O[C@@]12CO[C@@H]1C[C@H](O)[C@@]1(C)C(=O)[C@H](O)C3=C(C)[C@@H](OC(=O)[C@H](O)[C@@H](NC(=O)OC(C)(C)C)c4ccccc4)C[C@@](O)([C@@H](OC(=O)c4ccccc4)[C@H]21)C3(C)C [Docetaxel] + Nc1ncn([C@H]2C[C@H](O)[C@@H](CO)O2)c(=O)n1 [decitabine] (first compound 0.0001 µM, partner dose 0.1 µM) | 44% | 45.6% | 30.8% | 67.7% | 69.8% | 41.4% | 50.6% |  |  | 42.5%
Nc1ccn([C@@H]2O[C@H](CO)[C@@H](O)C2(F)F)c(=O)n1 [gemcitabine] + O=C(O)c1ccc(-c2c[nH]c3ncc(-c4ccccc4)cc23)cc1C1CCCC1 [GSK650394] (first compound 0.0004 µM, partner dose 0.16 µM) | 97.3% | 94.7% | 91.6% | 106% | 93.7% | 90.3% | 143% | 107% | 81.4% | 110%
Nc1ccn([C@@H]2O[C@H](CO)[C@@H](O)C2(F)F)c(=O)n1 [gemcitabine] + O=S(=O)(c1ccccc1)N(CC(F)(F)F)c1ccc(C(O)(C(F)(F)F)C(F)(F)F)cc1 [T0901317] (first compound 0.0004 µM, partner dose 1.4 µM) | 84% | 92% | 87% | 109% | 94.1% | 94.2% | 91.4% | 92.3% | 94.6% | 102%
Nc1nc(F)nc2c1ncn2[C@@H]1O[C@H](CO)[C@@H](O)[C@@H]1O [fludarabine] + O=C(Nc1cccc(Cl)c1)Nc1ncc(CCNc2ncnc3ccsc23)s1 [SNS314] (first compound 0.2 µM, partner dose 0.0008 µM) | 105% | 30.4% | 71% | 103% | 78.6% | 6.81% | 16.7% | 46% | 83.7% | 78%
CC(=O)c1c(C)c2cnc(Nc3ccc(N4CCNCC4)cn3)nc2n(C2CCCC2)c1=O [palbociclib] + CN(C)S(=O)(=O)c1ccc2c(c1)/C(=C/c1cc3c([nH]1)CCCC3)C(=O)N2 [SU6656] (first compound 0.04 µM, partner dose 0.4 µM) | 67.7% | 67.7% | 93.1% | 74.2% | 71.7% | 70.2% | 60.4% | 72.7% | 51.3% | 71.1%
Nc1ncn([C@H]2C[C@H](O)[C@@H](CO)O2)c(=O)n1 [decitabine] + Oc1nc(-c2ccc(C(F)(F)F)cc2)nc2c1CSCC2 [XAV939] (first compound 0.1 µM, partner dose 2 µM) | 80.5% | 103% | 78.3% | 80.9% | 92% | 104% | 85.1% | 86.2% | 104% | 63.3%
Nc1nc(F)nc2c1ncn2[C@@H]1O[C@H](CO)[C@@H](O)[C@@H]1O [fludarabine] + O=C(Nc1ccccc1)c1cc([N+](=O)[O-])ccc1Cl [GW9662] (first compound 0.2 µM, partner dose 2 µM) | 110% | 34.1% | 83% | 124% | 72% | 8.48% | 17% | 75.1% | 89.2% | 71.7%
Nc1ccn([C@@H]2O[C@H](CO)[C@@H](O)C2(F)F)c(=O)n1 [gemcitabine] + Cc1ccc(NC(=O)c2cccc(N(C)C)c2)cc1NC(=O)c1ccc(O)cc1 [ZM336372] (first compound 0.0004 µM, partner dose 2 µM) | 69.1% | 94.8% | 96.9% | 93.1% | 115% | 117% | 90.6% | 96.2% | 93.6% | 117%
CC(=O)c1c(C)c2cnc(Nc3ccc(N4CCNCC4)cn3)nc2n(C2CCCC2)c1=O [palbociclib] + NCC(=O)Nc1ccc(-n2nc(C(F)(F)F)cc2-c2ccc3c(ccc4ccccc43)c2)cc1 [OSU03012] (first compound 0.04 µM, partner dose 1 µM) | 84.6% | 50.2% | 73% | 90.3% | 71% | 61.6% | 54.8% | 68.4% | 73.1% | 78.7%
